Experimental data: the supplement of paper PMC10441789
The other results are listed elsewhere or left out. Antibody binding of pooled human sera (four to six donors per pool; dilution not stated) to peptides of the Trypanosoma cruzi antigen TSSA on microarrays. Quantile-normalised fluorescence in arbitrary units, mean of duplicate arrays; higher = more binding. No active / inactive call. The uninfected pools are read here as the healthy donors of the same country. The strongest signals lie near the top of the scale (about 60,000).

Key:
Test in all cases: antibody binding signal (normalised fluorescence) (arbitrary fluorescence units); higher = stronger serum antibody binding to peptide
[1] = test system: pooled sera of chronic Chagas disease patients, Argentina
Procedure: (§1)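 Microarray of 15-residue peptides over residues 30-55 of Trypanosoma cruzi TSSAII, each with 1 to 10 substitutions at naturally variable positions, probed with one serum pool per country.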

[2] = test system: pooled sera of chronic Chagas disease patients, Bolivia
Procedure: as §1

[3] = test system: pooled sera of chronic Chagas disease patients, Brazil
Procedure: as §1

[4] = test system: pooled sera of chronic Chagas disease patients, Colombia
Procedure: as §1

[5] = test system: pooled sera of chronic Chagas disease patients, Mexico
Procedure: as §1

[6] = test system: pooled sera of chronic Chagas disease patients, USA
Procedure: as §1

[7] = test system: pooled sera of uninfected people, Argentina
Procedure: as §1

[8] = test system: pooled sera of uninfected people, Bolivia
Procedure: as §1

[9] = test system: pooled sera of uninfected people, Brazil
Procedure: as §1

[10] = test system: pooled sera of uninfected people, Colombia
Procedure: as §1

[11] = test system: pooled sera of uninfected people, Mexico
Procedure: as §1

[12] = test system: pooled sera of uninfected people, USA
Procedure: as §1

Sequence | antibody binding signal [1] | antibody binding signal [2] | antibody binding signal [3] | antibody binding signal [4] | antibody binding signal [5] | antibody binding signal [6] | antibody binding signal [7] | antibody binding signal [8] | antibody binding signal [9] | antibody binding signal [10] | antibody binding signal [11] | antibody binding signal [12]
TENKPAAGETPSPPG | 42600 | 655 | 20700 | 300 | 399 | 4630 | 161 | 407 | 194 | 162 | 156 | 905
SGKENKPATGETPSP | 35600 | 30800 | 35200 | 1300 | 1850 | 23100 | 7440 | 3940 | 269 | 327 | 1810 | 616
GKENKPATGEAPSQP | 49700 | 31200 | 53100 | 6700 | 8210 | 45400 | 1500 | 889 | 354 | 214 | 400 | 178
ISTPPSGTDKKPATG | 38300 | 5370 | 42800 | 12100 | 50300 | 11600 | 1090 | 956 | 202 | 244 | 2810 | 426
ISTPPSGKENKPAAG | 41100 | 5250 | 24800 | 363 | 11400 | 12800 | 3500 | 1880 | 200 | 629 | 217 | 738
TDKKPAAGGTPSQSG | 473 | 198 | 456 | 6230 | 315 | 997 | 241 | 773 | 1860 | 174 | 193 | 359
GKENKAAAGETPSQP | 7040 | 1230 | 33300 | 15100 | 9860 | 21600 | 542 | 191 | 126 | 154 | 129 | 117
NKPAAGEAPSPSGAS | 372 | 4240 | 28800 | 276 | 382 | 16100 | 294 | 788 | 487 | 236 | 138 | 861
TDNKAAAGGTPSQPG | 246 | 447 | 1700 | 3120 | 219 | 1070 | 358 | 286 | 1480 | 413 | 739 | 124
SGTEKKPATGETPSP | 34500 | 27600 | 27400 | 384 | 407 | 21700 | 171 | 660 | 605 | 194 | 1670 | 702
KTATGEAPSQSGASS | 13600 | 25300 | 19800 | 104 | 533 | 19000 | 390 | 202 | 177 | 163 | 701 | 134
SGKDKKAAAGEAPSP | 481 | 194 | 1070 | 1120 | 835 | 7730 | 159 | 75.8 | 98.4 | 169 | 84.3 | 90.4
TDKKPATGETPSPSG | 32000 | 26200 | 28800 | 334 | 134 | 23500 | 165 | 377 | 313 | 195 | 1740 | 2340
TDNKAATGGAPSPSG | 467 | 459 | 1230 | 424 | 455 | 1150 | 228 | 290 | 1160 | 204 | 199 | 122
KTAAGGTPSQSGASS | 1070 | 186 | 229 | 5570 | 761 | 1060 | 384 | 169 | 269 | 89.5 | 672 | 201
TENKTAAGGAPSQSG | 22400 | 775 | 602 | 5440 | 663 | 312 | 499 | 267 | 859 | 219 | 700 | 247
NKPATGGAPSPSGAS | 808 | 2630 | 8710 | 403 | 577 | 2190 | 699 | 1690 | 440 | 343 | 264 | 1240
PPSGTDKKTATGETP | 3850 | 8980 | 17600 | 2810 | 13600 | 6220 | 400 | 270 | 237 | 452 | 721 | 187
PPSGTDNKAAAGGTP | 42900 | 36800 | 45100 | 2510 | 1830 | 4660 | 507 | 823 | 2840 | 710 | 397 | 298
TDKKPAAGGAPSPPG | 408 | 219 | 493 | 5280 | 273 | 1120 | 221 | 997 | 301 | 116 | 135 | 176
EKKAATGETPSQSGA | 1970 | 1840 | 17600 | 263 | 424 | 10700 | 639 | 741 | 177 | 1060 | 342 | 812
KENKTAAGEAPSPPG | 322 | 272 | 3130 | 805 | 279 | 7130 | 232 | 119 | 149 | 144 | 123 | 182
TENKAATGGAPSPSG | 32400 | 588 | 3400 | 541 | 664 | 2440 | 280 | 189 | 343 | 182 | 216 | 302
TISTPPSGKEKKTAA | 15200 | 233 | 350 | 613 | 21400 | 678 | 699 | 405 | 127 | 214 | 118 | 247
SGKDKKTAAGEAPSP | 468 | 229 | 545 | 795 | 829 | 4920 | 158 | 78.9 | 90.5 | 572 | 72.5 | 74.7
